# Test results as given in the supplement of paper PMC8728848.
# This is one part of the list.
# How the values were obtained:
# Test in all cases: glycan array binding signal (z-score within array); higher = stronger binding
# Conditions in all cases: glycan notation: IUPAC condensed, linker removed
# [1] = target: Gal(b1-4)GlcNAc(b1-6)Gal(b1-4)GlcNAc
# How it was run: (§1)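 Negative Z-scores can be read as non-binding. The Z-score is calculated within each array and then averaged across arrays of one protein sequence at different concentrations or buffers and across linkers. Arrays, 3228 in all, were curated from the Consortium for Functional Glycomics database and kept only where the protein sequence was available.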
# [2] = target: Gal(b1-4)GlcNAc(b1-6)GalNAc
# How it was run: as §1
# [3] = target: Gal(b1-4)GlcNAc(b1-6)[Gal(b1-3)]GalNAc
# How it was run: as §1
# [4] = target: Gal(b1-4)GlcNAc(b1-6)[Gal(b1-4)GlcNAc(b1-3)]GalNAc
# How it was run: as §1
# Gal(b1-4)GlcNAc6P = target: Gal(b1-4)GlcNAc6P
# How it was run: as §1
# Gal(b1-6)Gal = target: Gal(b1-6)Gal
# How it was run: as §1
# Gal3S(b1-3)GalNAc = target: Gal3S(b1-3)GalNAc
# How it was run: as §1
# Gal3S(b1-3)GlcNAc = target: Gal3S(b1-3)GlcNAc
# How it was run: as §1
# [5] = target: Gal3S(b1-3)[Fuc(a1-4)]GlcNAc
# How it was run: as §1
# Gal3S(b1-4)Glc = target: Gal3S(b1-4)Glc
# How it was run: as §1
# Gal3S(b1-4)Glc6S = target: Gal3S(b1-4)Glc6S
# How it was run: as §1
# Gal3S(b1-4)GlcNAc = target: Gal3S(b1-4)GlcNAc
# How it was run: as §1
# [6] = target: Gal3S(b1-4)[Fuc(a1-3)]Glc6S
# How it was run: as §1
# [7] = target: Gal3S(b1-4)[Fuc(a1-3)]GlcNAc
# How it was run: as §1
# [8] = target: Gal3S(b1-4)[Fuc(a1-3)]GlcNAc6S
# How it was run: as §1
# Gal3S4S(b1-4)GlcNAc = target: Gal3S4S(b1-4)GlcNAc
# How it was run: as §1
# Gal3S6S(b1-4)GlcNAc = target: Gal3S6S(b1-4)GlcNAc
# How it was run: as §1
# Gal3S6S(b1-4)GlcNAc6S = target: Gal3S6S(b1-4)GlcNAc6S
# How it was run: as §1
# Gal4S(b1-4)GlcNAc = target: Gal4S(b1-4)GlcNAc
# How it was run: as §1
# Gal4S6S(b1-4)GlcNAc = target: Gal4S6S(b1-4)GlcNAc
# How it was run: as §1
# Gal6P(b1-4)GlcNAc = target: Gal6P(b1-4)GlcNAc
# How it was run: as §1
# Gal6S(b1-3)GlcNAc = target: Gal6S(b1-3)GlcNAc
# How it was run: as §1
# Gal6S(b1-3)GlcNAc6S = target: Gal6S(b1-3)GlcNAc6S
# How it was run: as §1
binder,measurement,setting,value
"HBHA-Rv (Mycobacterium tuberculosum), P0A5P6 (protein) MAENSNIDDIKAPLLAALGAADLALATVNELITNLRERAEETRTDTRSRVEESRARLTKLQEDLPEQLTELREKFTAEELRKAAEGYLEAATSRYNELVERGEAALERLRSQQSFEEVSARAEGYVDQAVELTQEALGTVASQTRAVGERAAKLVGIELPKKAAPAKKAAPAKKAAPAKKAAAKKAPAKKAAAKKVTQK",glycan array binding signal (z-score),[1],-0.117
same,glycan array binding signal (z-score),[2],0.172
same,glycan array binding signal (z-score),[3],-0.216
same,glycan array binding signal (z-score),[4],0.498
same,glycan array binding signal (z-score),Gal(b1-4)GlcNAc6P,-0.387
same,glycan array binding signal (z-score),Gal(b1-6)Gal,-0.145
same,glycan array binding signal (z-score),Gal3S(b1-3)GalNAc,0.518
same,glycan array binding signal (z-score),Gal3S(b1-3)GlcNAc,0.473
same,glycan array binding signal (z-score),[5],-0.037
same,glycan array binding signal (z-score),Gal3S(b1-4)Glc,0.162
same,glycan array binding signal (z-score),Gal3S(b1-4)Glc6S,0.3
same,glycan array binding signal (z-score),Gal3S(b1-4)GlcNAc,0.244
same,glycan array binding signal (z-score),[6],-0.104
same,glycan array binding signal (z-score),[7],0.345
same,glycan array binding signal (z-score),[8],0.922
same,glycan array binding signal (z-score),Gal3S4S(b1-4)GlcNAc,0.151
same,glycan array binding signal (z-score),Gal3S6S(b1-4)GlcNAc,0.023
same,glycan array binding signal (z-score),Gal3S6S(b1-4)GlcNAc6S,1.29
same,glycan array binding signal (z-score),Gal4S(b1-4)GlcNAc,0.695
same,glycan array binding signal (z-score),Gal4S6S(b1-4)GlcNAc,0.83
same,glycan array binding signal (z-score),Gal6P(b1-4)GlcNAc,-0.361
same,glycan array binding signal (z-score),Gal6S(b1-3)GlcNAc,0.37
same,glycan array binding signal (z-score),Gal6S(b1-3)GlcNAc6S,-0.075
